Broadly, the IC50 is the concentration at which inhibition is half-maximal.

Some results are limits rather than exact numbers.

For the experiment, the target named is hepatitis C virus RNA dependant polymerase (NS5B) (Hepatitis C virus genotype 1b, UniProt P26663). Description: Inhibition of NS5B RNA dependent RNA polymerase activity (SPA, oligo-U/polyA). The protocol: The compounds of the invention were tested for inhibitory activity against the hepatitis C virus RNA dependant polymerase (NS5B), according to the following assay:
The substrates are: • a 12 nucleotide RNA oligo-uridylate (or oligo-uridine-monophosphate) (oligo-U) primer modified with biotin at the free 5′C position; • a complementary poly-adenylate (or adenosine monophosphate) (polyA) template of heterogeneous length (1000-10000 nucleotides); and UTP-[5,6 ^3H].
Polymerase activity is measured as the incorporation of UMP-[5,6 ^3H] into the chain elongated from the oligo-U primer. The ^3H-labelled reaction product is captured by SPA-beads coated with streptavidin and quantified on the TopCount.
The enzyme can be stored at −20° C. in storage buffer (see below).
The biotinylated oligo-U12 primer, the Poly(A) template, and the UTP-[5,6 ^3H] were dissolved in water. The solutions can be stored at −80° C.
Just prior to assay, test compounds of the invention were dissolved in assay buffer containing 15% DMSO.
Just prior to assay, the substrates were mixed in assay buffer to the following concentrations:
Just prior to assay, the RNA polymerase (NS5B) cocktail was prepared in assay buffer to the following specifications:
The assay reaction was performed in a Microfluor™ white “U” bottom plate (Dynatech™ #7105), by successively adding: • 20 μL of test compound cocktail; • 20 μL of substrate cocktail; and • 20 μL of enzyme cocktail (final [NS5B] in assay=10 nM; final [n-dodecyl maltoside] in assay=0.33%; final DMSO in assay=5%).
The reaction was incubated at room temperature for 1.5 hours. STOP solution (20 μL; 0.5 M EDTA, 150 ng/μl tRNA) was added, followed by 30 μl streptavidin coated PVT beads (8 mg/ml in 20 mM Tris-HCl, pH 7.5, 25 mM KCl, 0.025% NaN3). The plate was then shaken for 30 minutes. A solution of CsCl was added (70 μL, 5 M), to bring the CsCl concentration to 1.95 M. The mixture was then allowed to stand for 1 hour. The beads were then counted on a Hewlett Packard TopCount™ instrument using the following protocol: • Data mode: counts per minute • Scintillator: liq/plast • Energy range: low • Efficiency mode: normal • Region: 0-50 • Count delay: 5 minutes • Count time: 1 minute • Expected results: 6000 cpm/well • 200 cpm/well no enzyme control.
Based on the results at ten different concentrations of test compound, standard concentration-% inhibition curves were plotted and analysed to determine IC50's for the compounds of the invention. For some compounds, the IC50 was estimated from two points.
Consider `CC(NC(=O)c1ccc2c(c1)nc(-c1ccoc1)n2C1CCCCC1)C(=O)Nc1cc(C(=O)O)ccc1O` (stereo not shown) [compound 1055], for which the IC50 was 500 to 5000 nM.

The molecule `COc1ccc(C(=O)O)cc1NC(=O)C1(NC(=O)c2ccc3c(c2)nc(-c2ccoc2)n3C2CCCCC2)CCCC1` [compound 1045] displayed an IC50 of 500 to 5000 nM.

Regarding `CC(NC(=O)c1ccc2c(c1)nc(-c1ccoc1)n2C1CCCCC1)C(=O)Nc1cc(CC(=O)O)ccc1O` (stereo not shown) [compound 1004], the IC50 was 500 to 5000 nM.

Consider `O=C(O)/C=C/c1ccc(NC(=O)C2(NC(=O)c3ccc4c(c3)nc(-c3ccoc3)n4C3CCCCC3)CCC2)cc1` [compound 1094], for which the half-maximal inhibitory concentration (IC50) is less than 500 nM.

Consider `CC(NC(=O)c1ccc2c(c1)nc(-c1ccoc1)n2C1CCCCC1)C(=O)Nc1ccc(Cl)c(/C=C/C(=O)O)c1` (stereo not shown) [compound 1010], for which the IC50 was in the range of 500 to 5000 nM.

`C[C@@H]1CCCC[C@H]1n1c(-c2cccn2C)nc2cc(C(=O)NC3(C(=O)Nc4ccc(/C=C/C(=O)O)cc4)CCCC3)ccc21` (racemic) [compound 2040] returned an IC50 of 500 to 5000 nM.

`C[C@@H]1CCCC[C@H]1n1c(-c2ccccn2)nc2cc(C(=O)NC3(C(=O)Nc4ccc(/C=C/C(=O)O)cc4)CCCC3)ccc21` (racemic) [compound 2044] gave an IC50 of 500 to 5000 nM.

`O=C(NC1(C(=O)Nc2ccc(N3CCOCC3)nc2)CCCC1)c1ccc2c(c1)nc(-c1ccoc1)n2C1CCCCC1` [compound 1042]: the IC50 is 500 to 5000 nM.

`O=C(O)/C=C/c1ccc(NC(=O)C2(NC(=O)c3ccc4c(c3)nc(-c3ccoc3)n4C3CCCCC3)CCCC2)cc1` [compound 1071]: the IC50 was less than 500 nM.

Consider `COc1cc(C(=O)O)ccc1NC(=O)C1(NC(=O)c2ccc3c(c2)nc(-c2ccoc2)n3C2CCCCC2)CCCC1` [compound 1047], for which the 50% inhibitory concentration (IC50) was 500 to 5000 nM.

For the molecule `O=C(O)C=Cc1ccc(NC(=O)C2(NC(=O)c3ccc4c(c3)nc(-c3cccs3)n4C3CC4CCC3C4)CCCC2)cc1` (mixture of isomers) [compound 2019], the IC50 was less than 500 nM.

With `O=C(NC1(C(=O)Nc2ccc(-c3ccc(O)cc3)cc2)CCCC1)c1ccc2c(c1)nc(-c1ccoc1)n2C1CCCCC1` [compound 1049], the concentration for half-maximal inhibition (IC50) lay within 500 to 5000 nM.

`CC1CCCCC1n1c(-c2cccs2)nc2cc(C(=O)NC3(C(=O)Nc4ccc(C=CC(=O)O)cc4)CCCC3)ccc21` (stereo not shown) [compound 2043] yielded an IC50 of 500 to 5000 nM.

Take `CC(NC(=O)c1ccc2c(c1)nc(-c1ccoc1)n2C1CCCCC1)C(=O)Nc1cccc(-c2ccc(C(=O)O)o2)c1` (stereo not shown) [compound 1061]: the IC50 was less than 500 nM.

In the case of `O=C(O)/C=C/c1ccc(NC(=O)CNC(=O)c2ccc3c(c2)nc(-c2ccoc2)n3C2CCCCC2)cc1` [compound 1079], the IC50 is less than 500 nM.

As to `O=C(NC1(C(=O)Nc2ccc3oc(=O)ccc3c2)CCCC1)c1ccc2c(c1)nc(-c1ccoc1)n2C1CCCCC1` [compound 1028], the IC50 was 500 to 5000 nM.

In turn, `CC1CCCC(C)C1n1c(-c2cccs2)nc2cc(C(=O)NC3(C(=O)Nc4ccc(C=CC(=O)O)cc4)CCCC3)ccc21` (mixture of isomers) [compound 2035] registered an IC50 of less than 500 nM.

The molecule `C[C@@H]1CCCC[C@H]1n1c(-c2ccccc2)nc2cc(C(=O)NC3(C(=O)Nc4ccc(/C=C/C(=O)O)cc4)CCCC3)ccc21` (racemic) [compound 2042] had an IC50 of 500 to 5000 nM.

With `Cn1cccc1-c1nc2cc(C(=O)NC3(C(=O)Nc4ccc(C=CC(=O)O)cc4)CCCC3)ccc2n1C1CC2CCC1C2` (mixture of isomers) [compound 2016], the IC50 was in the range of 500 to 5000 nM.

`CC1CCCCC1n1c(-c2ccoc2)nc2cc(C(=O)NC3(C(=O)Nc4ccc(C=CC(=O)O)cc4)CCCC3)ccc21` (stereo not shown) [compound 2045] gave a 50% inhibitory concentration (IC50) of 500 to 5000 nM.

Take `O=C(O)/C=C/c1ccc(NC(=O)C2(NC(=O)c3ccc4c(c3)nc(-c3ccccc3)n4C3CCC3)CCCC2)cc1` [compound 2026]: the IC50 fell in the range of 500 to 5000 nM.

`O=C(O)/C=C/c1ccc(NC(=O)C2(NC(=O)c3ccc4c(c3)nc(-c3ccc[nH]3)n4C3CCCCC3)CCCC2)cc1` [compound 2007] registered an IC50 of less than 500 nM.

Source of the values: US6841566B2, “Viral polymerase inhibitors” (Boehringer Ingelheim, Ltd., priority 2001, dated 2005).
